Source: a collection of fitness landscapes (doi:10.1126/science.1257360)
This is one part of the list.

B1: PhoQ; a variant is named by its letters at X, in order, P23837 (parent)
chain: MKKLLRLFFPLSLRVRFLLATAAVVLVLSLAYGMVALIGYSVSFDKTTFRLLRGESNLFYTLAKWENNKLHVELPENIDKQSPTMTLIYDENGQLLWAQRDVPWLMKMIQPDWLKSNGFHEIEADVNDTSLLLSGDHSIQQQLQEVREDDDDAEMTHSVAVNVYPATSRMPKLTIVVVDTIPVELKSSYMVWSWFIYVLSANLLLVIPLLWVAAWWSLRPIEALAKEVRELEEHNRELLNPATTRELTSLVRNLNRLLKSERERYDKYRTTLTDLTHSLKTPLXXLQXXLRSLRSEKMSVSDAEPVMLEQISRISQQIGYYLHRASMRGGTLLSRELHPVAPLLDNLTSALNKVYQRKGVNISLDISPEISFVGEQNDFVEVMGNVLDNACKYCLEFVEISARQTDEHLYIVVEDDGPGIPLSKREVIFDRGQRVDTLRPGQGVGLAVAREITEQYEGKIVAGESMLGGARMEVIFGRQHSAPKDE

Variants of: B1
Assay: enrichment ratio after two sorts for PhoP signalling (ratio (wild type AVST 3.29)); higher = more functional
Conditions: with PhoP (E. coli)

Which enrichment ratio does the source give for QRLR here?
The enrichment ratio was at most 0.25.

With WGRS as the variant, how does the enrichment ratio read?
Its enrichment ratio is at most 0.25.

With QLQG as the variant, how does the enrichment ratio read?
The enrichment ratio was at most 0.25.

Which enrichment ratio does the source give for QGNI here?
Its enrichment ratio is at most 0.25.

With LLVV as the variant, how does the enrichment ratio read?
The enrichment ratio was at most 0.25.

With PACP as the variant, how does the enrichment ratio read?
The enrichment ratio was at most 0.25.

TNSF was tested. Which enrichment ratio did it give?
Its enrichment ratio is 7.97.

For YFQV, which enrichment ratio is on record?
The enrichment ratio was at most 0.25.

Which enrichment ratio does the source give for KGVM here?
The enrichment ratio was at most 0.25.

Which enrichment ratio does the source give for DSWQ here?
Its enrichment ratio is at most 0.25.

With AEIV as the variant, how does the enrichment ratio read?
Its enrichment ratio is 4.76.

Which enrichment ratio does the source give for SAHP here?
Its enrichment ratio is at most 0.25.

TEFI was tested. Which enrichment ratio did it give?
The enrichment ratio was 9.19.

Which enrichment ratio does the source give for TQFM here?
Its enrichment ratio is 6.61.

How did the enrichment ratio turn out when YNTS was run?
Its enrichment ratio is at most 0.25.

With DVDY as the variant, how does the enrichment ratio read?
Its enrichment ratio is at most 0.25.

HMFL was tested. Which enrichment ratio did it give?
The enrichment ratio was at most 0.25.

Which enrichment ratio does the source give for SSWD here?
The enrichment ratio was at most 0.25.

NGFQ was tested. Which enrichment ratio did it give?
Its enrichment ratio is at most 0.25.

Which enrichment ratio does the source give for QGEY here?
Its enrichment ratio is at most 0.25.

Which enrichment ratio does the source give for YNLQ here?
Its enrichment ratio is at most 0.25.

How did the enrichment ratio turn out when FCIY was run?
Its enrichment ratio is at most 0.25.

For RCSR, which enrichment ratio is on record?
The enrichment ratio was at most 0.25.

Which enrichment ratio does the source give for NWTM here?
The enrichment ratio was at most 0.25.

VFAA was tested. Which enrichment ratio did it give?
The enrichment ratio was at most 0.25.

Which enrichment ratio does the source give for GWIH here?
The enrichment ratio was at most 0.25.

PAWI was tested. Which enrichment ratio did it give?
Its enrichment ratio is at most 0.25.

How did the enrichment ratio turn out when LHRR was run?
Its enrichment ratio is at most 0.25.

IKAE was tested. Which enrichment ratio did it give?
Its enrichment ratio is at most 0.25.

KDSM was tested. Which enrichment ratio did it give?
The enrichment ratio was at most 0.25.

For FNGT, which enrichment ratio is on record?
The enrichment ratio was at most 0.25.

Which enrichment ratio does the source give for MDCR here?
Its enrichment ratio is at most 0.25.

With PPSK as the variant, how does the enrichment ratio read?
Its enrichment ratio is at most 0.25.

For PTSG, which enrichment ratio is on record?
The enrichment ratio was at most 0.25.

KGTG was tested. Which enrichment ratio did it give?
Its enrichment ratio is at most 0.25.

With SIAA as the variant, how does the enrichment ratio read?
Its enrichment ratio is 10.3.

How did the enrichment ratio turn out when RLTW was run?
The enrichment ratio was at most 0.25.

Which enrichment ratio does the source give for GGIN here?
The enrichment ratio was at most 0.25.

How did the enrichment ratio turn out when FHIN was run?
The enrichment ratio was at most 0.25.

Which enrichment ratio does the source give for WSAW here?
Its enrichment ratio is at most 0.25.

For GDWQ, which enrichment ratio is on record?
Its enrichment ratio is at most 0.25.

How did the enrichment ratio turn out when NSRC was run?
The enrichment ratio was at most 0.25.

With EVAH as the variant, how does the enrichment ratio read?
The enrichment ratio was at most 0.25.

How did the enrichment ratio turn out when KNEY was run?
Its enrichment ratio is at most 0.25.

For DTCP, which enrichment ratio is on record?
Its enrichment ratio is at most 0.25.

Which enrichment ratio does the source give for GPLP here?
The enrichment ratio was at most 0.25.

Which enrichment ratio does the source give for NAEG here?
Its enrichment ratio is at most 0.25.

How did the enrichment ratio turn out when FDVQ was run?
The enrichment ratio was at most 0.25.

With MRSY as the variant, how does the enrichment ratio read?
Its enrichment ratio is at most 0.25.

With EMHG as the variant, how does the enrichment ratio read?
Its enrichment ratio is at most 0.25.

Which enrichment ratio does the source give for ESPT here?
The enrichment ratio was at most 0.25.

PNSS was tested. Which enrichment ratio did it give?
Its enrichment ratio is at most 0.25.

With KTDI as the variant, how does the enrichment ratio read?
Its enrichment ratio is at most 0.25.

For SIIP, which enrichment ratio is on record?
The enrichment ratio was at most 0.25.

SFMF was tested. Which enrichment ratio did it give?
The enrichment ratio was at most 0.25.

Which enrichment ratio does the source give for HKYP here?
Its enrichment ratio is at most 0.25.

For GYNS, which enrichment ratio is on record?
The enrichment ratio was at most 0.25.

With SSGS as the variant, how does the enrichment ratio read?
Its enrichment ratio is 8.94.

IEAV was tested. Which enrichment ratio did it give?
Its enrichment ratio is at most 0.25.

How did the enrichment ratio turn out when HDLS was run?
The enrichment ratio was at most 0.25.

LGQC was tested. Which enrichment ratio did it give?
The enrichment ratio was at most 0.25.

How did the enrichment ratio turn out when KFNG was run?
The enrichment ratio was at most 0.25.

With QCPV as the variant, how does the enrichment ratio read?
Its enrichment ratio is at most 0.25.

For LSAN, which enrichment ratio is on record?
The enrichment ratio was at most 0.25.

Which enrichment ratio does the source give for MRWG here?
The enrichment ratio was at most 0.25.

FGGG was tested. Which enrichment ratio did it give?
The enrichment ratio was at most 0.25.

With PCWK as the variant, how does the enrichment ratio read?
Its enrichment ratio is at most 0.25.

LVMC was tested. Which enrichment ratio did it give?
The enrichment ratio was at most 0.25.

Which enrichment ratio does the source give for AVTF here?
Its enrichment ratio is 11.4.

For RSEY, which enrichment ratio is on record?
The enrichment ratio was at most 0.25.

For TAGI, which enrichment ratio is on record?
The enrichment ratio was 13.1.

ITET was tested. Which enrichment ratio did it give?
Its enrichment ratio is at most 0.25.

Which enrichment ratio does the source give for DPHK here?
Its enrichment ratio is at most 0.25.

For GEWF, which enrichment ratio is on record?
Its enrichment ratio is at most 0.25.

For LAEW, which enrichment ratio is on record?
The enrichment ratio was at most 0.25.

For HQTF, which enrichment ratio is on record?
The enrichment ratio was at most 0.25.

With LNVC as the variant, how does the enrichment ratio read?
Its enrichment ratio is at most 0.25.

With APCR as the variant, how does the enrichment ratio read?
The enrichment ratio was at most 0.25.

With EVDL as the variant, how does the enrichment ratio read?
The enrichment ratio was at most 0.25.

Which enrichment ratio does the source give for VHRI here?
Its enrichment ratio is at most 0.25.

How did the enrichment ratio turn out when PWGL was run?
Its enrichment ratio is at most 0.25.

How did the enrichment ratio turn out when RWVG was run?
Its enrichment ratio is at most 0.25.

Which enrichment ratio does the source give for KHPT here?
The enrichment ratio was at most 0.25.

How did the enrichment ratio turn out when NVYI was run?
The enrichment ratio was at most 0.25.

How did the enrichment ratio turn out when YNTA was run?
Its enrichment ratio is at most 0.25.

With SIEI as the variant, how does the enrichment ratio read?
The enrichment ratio was at most 0.25.

With QGYR as the variant, how does the enrichment ratio read?
The enrichment ratio was at most 0.25.

LGLT was tested. Which enrichment ratio did it give?
The enrichment ratio was at most 0.25.

How did the enrichment ratio turn out when QKTK was run?
The enrichment ratio was at most 0.25.

PQAG was tested. Which enrichment ratio did it give?
Its enrichment ratio is at most 0.25.

With DCLQ as the variant, how does the enrichment ratio read?
Its enrichment ratio is at most 0.25.

Which enrichment ratio does the source give for SMVE here?
The enrichment ratio was 5.68.

With ALKG as the variant, how does the enrichment ratio read?
Its enrichment ratio is at most 0.25.

Which enrichment ratio does the source give for HMYV here?
Its enrichment ratio is at most 0.25.

With QEII as the variant, how does the enrichment ratio read?
The enrichment ratio was at most 0.25.

How did the enrichment ratio turn out when LILF was run?
The enrichment ratio was at most 0.25.

With WVCP as the variant, how does the enrichment ratio read?
Its enrichment ratio is at most 0.25.

For QICD, which enrichment ratio is on record?
The enrichment ratio was at most 0.25.

With MERA as the variant, how does the enrichment ratio read?
Its enrichment ratio is at most 0.25.

Which enrichment ratio does the source give for YWGV here?
The enrichment ratio was at most 0.25.

With ADKQ as the variant, how does the enrichment ratio read?
Its enrichment ratio is at most 0.25.

DWQP was tested. Which enrichment ratio did it give?
Its enrichment ratio is at most 0.25.

With VFPH as the variant, how does the enrichment ratio read?
Its enrichment ratio is at most 0.25.

Which enrichment ratio does the source give for LTEN here?
The enrichment ratio was at most 0.25.

For EDLF, which enrichment ratio is on record?
The enrichment ratio was at most 0.25.

How did the enrichment ratio turn out when VVRP was run?
Its enrichment ratio is at most 0.25.

Which enrichment ratio does the source give for RGPQ here?
The enrichment ratio was at most 0.25.

With EPCY as the variant, how does the enrichment ratio read?
The enrichment ratio was at most 0.25.

How did the enrichment ratio turn out when WFQK was run?
Its enrichment ratio is at most 0.25.

For NSLR, which enrichment ratio is on record?
Its enrichment ratio is at most 0.25.

GNKT was tested. Which enrichment ratio did it give?
The enrichment ratio was at most 0.25.

Which enrichment ratio does the source give for YSEL here?
Its enrichment ratio is at most 0.25.

Which enrichment ratio does the source give for EISD here?
Its enrichment ratio is at most 0.25.

With HMLK as the variant, how does the enrichment ratio read?
Its enrichment ratio is at most 0.25.

GKET was tested. Which enrichment ratio did it give?
Its enrichment ratio is at most 0.25.

HYNW was tested. Which enrichment ratio did it give?
Its enrichment ratio is at most 0.25.

DQVK was tested. Which enrichment ratio did it give?
The enrichment ratio was at most 0.25.

For LYCP, which enrichment ratio is on record?
Its enrichment ratio is at most 0.25.

How did the enrichment ratio turn out when LCKS was run?
The enrichment ratio was at most 0.25.

HFAR was tested. Which enrichment ratio did it give?
Its enrichment ratio is at most 0.25.

For FRNS, which enrichment ratio is on record?
Its enrichment ratio is 0.333.

GPQG was tested. Which enrichment ratio did it give?
The enrichment ratio was at most 0.25.

How did the enrichment ratio turn out when FSKL was run?
Its enrichment ratio is at most 0.25.

With VHLY as the variant, how does the enrichment ratio read?
The enrichment ratio was at most 0.25.

TNHW was tested. Which enrichment ratio did it give?
Its enrichment ratio is at most 0.25.

For YWKD, which enrichment ratio is on record?
Its enrichment ratio is at most 0.25.

With MSTL as the variant, how does the enrichment ratio read?
Its enrichment ratio is 10.9.

KTFP was tested. Which enrichment ratio did it give?
Its enrichment ratio is at most 0.25.

How did the enrichment ratio turn out when MPTH was run?
The enrichment ratio was at most 0.25.

Which enrichment ratio does the source give for EIFH here?
Its enrichment ratio is at most 0.25.

Which enrichment ratio does the source give for RQYA here?
The enrichment ratio was at most 0.25.

For PVCA, which enrichment ratio is on record?
Its enrichment ratio is at most 0.25.

HKFD was tested. Which enrichment ratio did it give?
Its enrichment ratio is at most 0.25.

With AVTW as the variant, how does the enrichment ratio read?
The enrichment ratio was 43.5.

TCYD was tested. Which enrichment ratio did it give?
The enrichment ratio was at most 0.25.

Which enrichment ratio does the source give for NDIQ here?
The enrichment ratio was at most 0.25.

How did the enrichment ratio turn out when VCCK was run?
The enrichment ratio was at most 0.25.

How did the enrichment ratio turn out when IPTY was run?
Its enrichment ratio is at most 0.25.

For AEMT, which enrichment ratio is on record?
Its enrichment ratio is 5.41.

For FIRG, which enrichment ratio is on record?
The enrichment ratio was at most 0.25.

HTTF was tested. Which enrichment ratio did it give?
The enrichment ratio was at most 0.25.

How did the enrichment ratio turn out when LTAT was run?
The enrichment ratio was at most 0.25.

How did the enrichment ratio turn out when IMGP was run?
Its enrichment ratio is at most 0.25.

How did the enrichment ratio turn out when TSEP was run?
The enrichment ratio was at most 0.25.

With IICD as the variant, how does the enrichment ratio read?
Its enrichment ratio is at most 0.25.

Which enrichment ratio does the source give for VMDV here?
Its enrichment ratio is at most 0.25.

FKKM was tested. Which enrichment ratio did it give?
Its enrichment ratio is at most 0.25.

Which enrichment ratio does the source give for ACMC here?
Its enrichment ratio is 5.68.

For AVMC, which enrichment ratio is on record?
The enrichment ratio was at most 0.25.

FWET was tested. Which enrichment ratio did it give?
Its enrichment ratio is at most 0.25.

With HAIT as the variant, how does the enrichment ratio read?
Its enrichment ratio is at most 0.25.

For EKHC, which enrichment ratio is on record?
Its enrichment ratio is at most 0.25.

FKHF was tested. Which enrichment ratio did it give?
Its enrichment ratio is at most 0.25.
